This is one part of the list. The list includes weakly bound sequences.
These sequences were tested against T1, MBP-FoxP3dN (UniProt Q99JB6) (assay: PD-seq (MBP pull-down with sequencing)). Settings: 20 mM Tris-HCl pH 7.5, 100 mM NaCl, 1.5 mM MgCl2, 0.4 uM protein, 0.1 uM dsDNA library, 30 min, room temperature, amylose pull-down; high values mean tight binding; double strand, one strand shown.
T1 sequence: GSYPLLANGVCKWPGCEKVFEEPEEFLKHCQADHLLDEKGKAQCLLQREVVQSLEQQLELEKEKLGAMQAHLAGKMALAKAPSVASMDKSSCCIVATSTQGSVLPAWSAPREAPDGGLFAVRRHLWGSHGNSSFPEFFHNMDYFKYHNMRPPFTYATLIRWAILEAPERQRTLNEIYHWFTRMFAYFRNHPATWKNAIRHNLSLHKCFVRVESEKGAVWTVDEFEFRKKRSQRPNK

Sequence | binding signal (RPM ratio (pull-down/input))
GATGATTGTTCTCCCAGCTGATGAATTAAGTACTTCGAGTAAACAAATTTTCCTAATCTTTCTGTTCAAGCGCCATCTAC | 0.487
GATGATTGTTCTCCCAGCTGATGAATTATTAGCATCGAGTAAACAAATTTTCCTAATCTTTCTGTTCAAGCGCCATCTAC | 1.46
GATGATTGTTCTCCCAGCTGATGAATTTGGTCAATCGAGTAAACAAATTTTCCTAATCTTTCTGTTCAAGCGCCATCTAC | 0.298
GATGATTGTTCTCCCAGCTGATGAATTGGAAACGTCGAGTAAACAAATTTTCCTAATCTTTCTGTTCAAGCGCCATCTAC | 0.241
GATGATTGTTCTCCCAGCTGATGAATTCAAATCATCGAGTAAACAAATTTTCCTAATCTTTCTGTTCAAGCGCCATCTAC | 0.446
GATGATTGTTCTCCCAGCTGATGAATTTTACCCTTCGAGTAAACAAATTTTCCTAATCTTTCTGTTCAAGCGCCATCTAC | 0.241
GATGATTGTTCTCCCAGCTGATGAATTTCGTTCCTCGAGTAAACAAATTTTCCTAATCTTTCTGTTCAAGCGCCATCTAC | 0.644
GATGATTGTTCTCCCAGCTGATGAATTCATACCCTCGAGTAAACAAATTTTCCTAATCTTTCTGTTCAAGCGCCATCTAC | 0.328
GATGATTGTTCTCCCAGCTGATGAATTGGGATCTTCGAGTAAACAAATTTTCCTAATCTTTCTGTTCAAGCGCCATCTAC | 0.32
GATGATTGTTCTCCCAGCTGATGAATTCACCGGATCGAGTAAACAAATTTTCCTAATCTTTCTGTTCAAGCGCCATCTAC | 0.193
GATGATTGTTCTCCCAGCTGATGAATTCACTTAATCGAGTAAACAAATTTTCCTAATCTTTCTGTTCAAGCGCCATCTAC | 0.236
GATGATTGTTCTCCCAGCTGATGAATTGGGAGGATCGAGTAAACAAATTTTCCTAATCTTTCTGTTCAAGCGCCATCTAC | 0.231
GATGATTGTTCTCCCAGCTGATGAATTTAACTTCTCGAGTAAACAAATTTTCCTAATCTTTCTGTTCAAGCGCCATCTAC | 0.373
GATGATTGTTCTCCCAGCTGATGAATTAGGCCCGTCGAGTAAACAAATTTTCCTAATCTTTCTGTTCAAGCGCCATCTAC | 1.25
GATGATTGTTCTCCCAGCTGATGAATTGAACTCGTCGAGTAAACAAATTTTCCTAATCTTTCTGTTCAAGCGCCATCTAC | 0.287
GATGATTGTTCTCCCAGCTGATGAATTTACGTATTCGAGTAAACAAATTTTCCTAATCTTTCTGTTCAAGCGCCATCTAC | 1.36
GATGATTGTTCTCCCAGCTGATGAATTATTAGGCTCGAGTAAACAAATTTTCCTAATCTTTCTGTTCAAGCGCCATCTAC | 0.398
GATGATTGTTCTCCCAGCTGATGAATTGTGCAACTCGAGTAAACAAATTTTCCTAATCTTTCTGTTCAAGCGCCATCTAC | 6.92
GATGATTGTTCTCCCAGCTGATGAATTGACCTTGTCGAGTAAACAAATTTTCCTAATCTTTCTGTTCAAGCGCCATCTAC | 0.267
GATGATTGTTCTCCCAGCTGATGAATTAGTCCTCTCGAGTAAACAAATTTTCCTAATCTTTCTGTTCAAGCGCCATCTAC | 0.663
GATGATTGTTCTCCCAGCTGATGAATTGGATGCCTCGAGTAAACAAATTTTCCTAATCTTTCTGTTCAAGCGCCATCTAC | 1.54

Sequence | binding signal (RPM ratio (pull-down/input))
GATGATTGTTCTCCCAGCTGATGAATTTTCGAGCTCGAGTAAACAAATTTTCCTAATCTTTCTGTTCAAGCGCCATCTAC | 0.208
GATGATTGTTCTCCCAGCTGATGAATTACGTGGTTCGAGTAAACAAATTTTCCTAATCTTTCTGTTCAAGCGCCATCTAC | 0.913
GATGATTGTTCTCCCAGCTGATGAATTGTCTACATCGAGTAAACAAATTTTCCTAATCTTTCTGTTCAAGCGCCATCTAC | 1.49
GATGATTGTTCTCCCAGCTGATGAATTCGTCGTTTCGAGTAAACAAATTTTCCTAATCTTTCTGTTCAAGCGCCATCTAC | 1.41
GATGATTGTTCTCCCAGCTGATGAATTCCAGATATCGAGTAAACAAATTTTCCTAATCTTTCTGTTCAAGCGCCATCTAC | 0.282
GATGATTGTTCTCCCAGCTGATGAATTTTCGTGTTCGAGTAAACAAATTTTCCTAATCTTTCTGTTCAAGCGCCATCTAC | 0.61
GATGATTGTTCTCCCAGCTGATGAATTAACGTGGTCGAGTAAACAAATTTTCCTAATCTTTCTGTTCAAGCGCCATCTAC | 0.354
GATGATTGTTCTCCCAGCTGATGAATTACAAGGGTCGAGTAAACAAATTTTCCTAATCTTTCTGTTCAAGCGCCATCTAC | 0.338
GATGATTGTTCTCCCAGCTGATGAATTCCCCTCCTCGAGTAAACAAATTTTCCTAATCTTTCTGTTCAAGCGCCATCTAC | 0.25
GATGATTGTTCTCCCAGCTGATGAATTAGCAGGCTCGAGTAAACAAATTTTCCTAATCTTTCTGTTCAAGCGCCATCTAC | 0.407
GATGATTGTTCTCCCAGCTGATGAATTCTACCCGTCGAGTAAACAAATTTTCCTAATCTTTCTGTTCAAGCGCCATCTAC | 0.246
GATGATTGTTCTCCCAGCTGATGAATTAATATCGTCGAGTAAACAAATTTTCCTAATCTTTCTGTTCAAGCGCCATCTAC | 0.654
GATGATTGTTCTCCCAGCTGATGAATTACTACGATCGAGTAAACAAATTTTCCTAATCTTTCTGTTCAAGCGCCATCTAC | 0.338
GATGATTGTTCTCCCAGCTGATGAATTTACAGCGTCGAGTAAACAAATTTTCCTAATCTTTCTGTTCAAGCGCCATCTAC | 0.607
GATGATTGTTCTCCCAGCTGATGAATTTGCAAGATCGAGTAAACAAATTTTCCTAATCTTTCTGTTCAAGCGCCATCTAC | 0.415
GATGATTGTTCTCCCAGCTGATGAATTGTTTTTGTCGAGTAAACAAATTTTCCTAATCTTTCTGTTCAAGCGCCATCTAC | 4.16
GATGATTGTTCTCCCAGCTGATGAATTGGTATAATCGAGTAAACAAATTTTCCTAATCTTTCTGTTCAAGCGCCATCTAC | 0.914
GATGATTGTTCTCCCAGCTGATGAATTCTGACCATCGAGTAAACAAATTTTCCTAATCTTTCTGTTCAAGCGCCATCTAC | 0.422
GATGATTGTTCTCCCAGCTGATGAATTTGACATATCGAGTAAACAAATTTTCCTAATCTTTCTGTTCAAGCGCCATCTAC | 1.03
GATGATTGTTCTCCCAGCTGATGAATTCCGGTGGTCGAGTAAACAAATTTTCCTAATCTTTCTGTTCAAGCGCCATCTAC | 0.395
GATGATTGTTCTCCCAGCTGATGAATTACTCGGATCGAGTAAACAAATTTTCCTAATCTTTCTGTTCAAGCGCCATCTAC | 0.243

Sequence | binding signal (RPM ratio (pull-down/input))
GATGATTGTTCTCCCAGCTGATGAATTTCCTTACTCGAGTAAACAAATTTTCCTAATCTTTCTGTTCAAGCGCCATCTAC | 0.311
GATGATTGTTCTCCCAGCTGATGAATTCCTCGACTCGAGTAAACAAATTTTCCTAATCTTTCTGTTCAAGCGCCATCTAC | 0.213
GATGATTGTTCTCCCAGCTGATGAATTTCTAAACTCGAGTAAACAAATTTTCCTAATCTTTCTGTTCAAGCGCCATCTAC | 0.302
GATGATTGTTCTCCCAGCTGATGAATTCCATGAGTCGAGTAAACAAATTTTCCTAATCTTTCTGTTCAAGCGCCATCTAC | 0.445
GATGATTGTTCTCCCAGCTGATGAATTAACGACCTCGAGTAAACAAATTTTCCTAATCTTTCTGTTCAAGCGCCATCTAC | 0.235
GATGATTGTTCTCCCAGCTGATGAATTCATATATTCGAGTAAACAAATTTTCCTAATCTTTCTGTTCAAGCGCCATCTAC | 0.949
GATGATTGTTCTCCCAGCTGATGAATTTCTTTACTCGAGTAAACAAATTTTCCTAATCTTTCTGTTCAAGCGCCATCTAC | 2.02
GATGATTGTTCTCCCAGCTGATGAATTTTATCAATCGAGTAAACAAATTTTCCTAATCTTTCTGTTCAAGCGCCATCTAC | 0.413
GATGATTGTTCTCCCAGCTGATGAATTATGCAGCTCGAGTAAACAAATTTTCCTAATCTTTCTGTTCAAGCGCCATCTAC | 3.11
GATGATTGTTCTCCCAGCTGATGAATTAGCGTTCTCGAGTAAACAAATTTTCCTAATCTTTCTGTTCAAGCGCCATCTAC | 1.3
GATGATTGTTCTCCCAGCTGATGAATTTGGCGCGTCGAGTAAACAAATTTTCCTAATCTTTCTGTTCAAGCGCCATCTAC | 1.67
GATGATTGTTCTCCCAGCTGATGAATTGCATCACTCGAGTAAACAAATTTTCCTAATCTTTCTGTTCAAGCGCCATCTAC | 3.27
GATGATTGTTCTCCCAGCTGATGAATTGATGCGCTCGAGTAAACAAATTTTCCTAATCTTTCTGTTCAAGCGCCATCTAC | 3.59
GATGATTGTTCTCCCAGCTGATGAATTTCTCGTATCGAGTAAACAAATTTTCCTAATCTTTCTGTTCAAGCGCCATCTAC | 0.424
GATGATTGTTCTCCCAGCTGATGAATTAGCACCCTCGAGTAAACAAATTTTCCTAATCTTTCTGTTCAAGCGCCATCTAC | 0.421
GATGATTGTTCTCCCAGCTGATGAATTTTTAGGTTCGAGTAAACAAATTTTCCTAATCTTTCTGTTCAAGCGCCATCTAC | 0.24
GATGATTGTTCTCCCAGCTGATGAATTTTCGCGGTCGAGTAAACAAATTTTCCTAATCTTTCTGTTCAAGCGCCATCTAC | 0.255
GATGATTGTTCTCCCAGCTGATGAATTTAGTCTGTCGAGTAAACAAATTTTCCTAATCTTTCTGTTCAAGCGCCATCTAC | 0.54
GATGATTGTTCTCCCAGCTGATGAATTCGCGACTTCGAGTAAACAAATTTTCCTAATCTTTCTGTTCAAGCGCCATCTAC | 0.792
GATGATTGTTCTCCCAGCTGATGAATTTAATGTTTCGAGTAAACAAATTTTCCTAATCTTTCTGTTCAAGCGCCATCTAC | 3.24
GATGATTGTTCTCCCAGCTGATGAATTCAGCCACTCGAGTAAACAAATTTTCCTAATCTTTCTGTTCAAGCGCCATCTAC | 5.07

— publication PMC12820563
